PubChem BioAssay AID1030 (National Center for Advancing Translational Sciences (NCATS), 2008)
About 16,000 (7.3%) of roughly 220,000 compounds were called active. Inconclusive means that the source gave no clear call. Such entries were picked first, then a sample of the others. The call rests on the fitted dose curve; in most records, active means well fitted inhibition curve with a large enough effect (not every such curve was filed as active); inconclusive means small, poorly fitted or top-dose-only effect, or another doubt; inactive means no such curve, though single readings can be large or run the other way. Potencies beside an inconclusive call are fits to weak or partial responses and may not hold up.

biological target: Aldehyde dehydrogenase 1A1 (Homo sapiens) (UniProt P00352); assay: qHTS Assay for Inhibitors of Aldehyde Dehydrogenase 1 (ALDH1A1); settings: Purified ALDH1A1, NADH fluorescence, propionaldehyde substrate; series mostly up to 75.3 µM; activity, negative = inhibition: at the top concentration;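 on activity, negative = inhibition: plate controls were no enzyme wells and a reference inhibitor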
Chain of UniProt P00352 (P00352 whole entry, looked up): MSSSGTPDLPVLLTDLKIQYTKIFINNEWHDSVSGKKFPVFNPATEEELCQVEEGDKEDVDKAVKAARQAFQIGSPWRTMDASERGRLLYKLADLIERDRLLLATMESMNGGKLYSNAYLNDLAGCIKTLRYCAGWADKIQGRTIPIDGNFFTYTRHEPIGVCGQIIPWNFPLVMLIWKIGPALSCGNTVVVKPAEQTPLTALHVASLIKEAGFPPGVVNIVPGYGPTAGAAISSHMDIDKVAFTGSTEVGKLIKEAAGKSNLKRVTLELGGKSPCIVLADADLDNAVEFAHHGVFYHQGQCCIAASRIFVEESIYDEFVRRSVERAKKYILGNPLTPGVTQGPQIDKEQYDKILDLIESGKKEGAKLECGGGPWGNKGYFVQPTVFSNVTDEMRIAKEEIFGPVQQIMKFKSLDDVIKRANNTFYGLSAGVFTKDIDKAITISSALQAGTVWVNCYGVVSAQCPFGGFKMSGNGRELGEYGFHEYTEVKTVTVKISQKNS
Potency means the concentration at half of the fitted maximal effect; tags describe the fitted curve by direction and shape.

Potency, inconclusive:
COc1cc(C2NC(=O)NC(O)(C(F)(F)F)C2C(=O)c2ccc(Cl)cc2)ccc1O (stereo not given) 20 µM [inhibitor, partial curve]
Cc1ccc(S(=O)(=O)N2CCOCC2)cc1C(=O)Nc1cccc(S(=O)(=O)N2CCCC2)c1 28.2 µM [inhibitor, partial curve]
O=c1cc(CNCCCO)c2ccccc2[nH]1 39.8 µM [inhibitor, single point]
Cc1nc2ccc(S(=O)(=O)NCC(=O)N(C)Cc3ccccc3)cc2s1 22.4 µM [inhibitor, single point]
CCOc1ccc(C(=O)CSCC(=O)O)cc1 18.9 µM [inhibitor, partial curve]
CCOC(=O)C1=C([Si](C)(C)C)c2ccccc2N(S(=O)(=O)C(F)(F)F)C1C(=O)OCC (stereo not given) 39.8 µM [inhibitor, partial curve]
Cc1ccccc1S(=O)(=O)Nc1nc2ccccc2nc1NCCO 39.8 µM [inhibitor, single point]
CC1CC(C)CN(C(=O)c2cc3cc(Br)cc(Br)c3o2)C1 (stereo not given) 31.6 µM [inhibitor, partial curve]
Cc1cccc(CNc2ncncc2-c2ccc(C(=O)N(C)C)cc2)c1 35.5 µM [inhibitor, partial curve]
CN1CCN(S(=O)(=O)c2ccc(N(C)Cc3cccs3)nc2)CC1 44.7 µM [inhibitor, single point]
COc1ccc(NC(=O)CCOc2ccccc2)cc1 28.2 µM [inhibitor, single point]
Cc1cc(C)c(NC(=O)CSc2nc3ccc(NC(=O)CSc4nnnn4-c4ccccc4)cc3s2)c(C)c1 28.2 µM [inhibitor, single point]
CCOC(=O)CSc1ccc(S(=O)(=O)N(C)C2CCCCC2)cc1[N+](=O)[O-] 10 µM [inhibitor, partial curve]
CN(C)c1ccc(/C=N/Nc2cc(N3CCOCC3)nc(N3CCOCC3)n2)cc1 35.5 µM [inhibitor, single point]
COc1cc(/C=N/O)cc(Br)c1OCC(=O)NCc1ccccc1 35.5 µM [inhibitor, single point]
Cc1[nH]n(-c2ccc([N+](=O)[O-])cc2)c(=O)c1C=NCCN1CCN(C(=O)C(C)C)CC1 25.1 µM [inhibitor, single point]
C/C(=N/Nc1ccc(C(=O)O)cc1)c1ccc(O)c(O)c1O 28.2 µM [inhibitor, single point]
COc1ccc(N2CCN(Cc3nc(N)nc(Nc4ccccc4OC)n3)CC2)cc1 39.8 µM [inhibitor, single point]
O=C(Nc1ccc(F)cc1)c1sccc1SCc1cccc(C(F)(F)F)c1 28.2 µM [inhibitor, single point]
COC(=O)c1cccc(NC(=O)/C=C/c2ccc3c(c2)OCO3)c1 35.5 µM [inhibitor, single point]
C[C@@]1(C(=O)O)NCCc2cc(O)c(O)cc21 17.8 µM [inhibitor, partial curve]
CCCCNC(=O)N(C)c1nc2ccccc2s1 39.8 µM [inhibitor, single point]
Cc1nc(C)c(-c2csc(Nc3ccc(F)cc3)n2)s1 39.8 µM [inhibitor, single point]
O=C1CSC(c2cccc([N+](=O)[O-])c2)N1c1ccccc1F (stereo not given) 20 µM [inhibitor, partial curve]
COc1cc(C)c(C(C)C)cc1S(=O)(=O)NCCCn1ccnc1 7.08 µM [inhibitor, partial curve]
CCN(C(=O)CSc1nnnn1-c1ccccc1)C1CCS(=O)(=O)C1 (stereo not given) 22.4 µM [inhibitor, partial curve]
CC(=O)N1CCN(S(=O)(=O)c2ccc(C)cc2)C1c1ccc(N(C)C)cc1 (stereo not given) 39.8 µM [inhibitor, single point]
COCCCNC(=O)c1ccc(CS(=O)(=O)c2ccc(Br)cc2)o1 39.8 µM [inhibitor, single point]
COc1ccc(NC(=O)c2ccccc2CC[N+](=O)[O-])cc1 28.2 µM [inhibitor, single point]
CC(C)(C)SCCNS(=O)(=O)c1ccccc1 39.8 µM [inhibitor, single point]
NC(=O)C[C@@H]1NC(=O)CNC(=O)c2cc([N+](=O)[O-])cc(I)c2NCCC(C(N)=O)NC1=O (stereo not given in full) 35.5 µM [inhibitor, single point]
Fc1ccc(-n2nnnc2-c2ccccc2Cl)cc1 28.2 µM [inhibitor, partial curve]
Cc1cc(NS(=O)(=O)c2ccc(NC(=O)c3cnc4scc(C)n4c3=O)cc2)nc(C)n1 10 µM [inhibitor, partial curve]
C=CCN1C(=O)N/C(=C/c2ccc(N3CCOCC3)o2)C1=O 12.6 µM [inhibitor, partial curve]
COCCN(CCOC)C(=O)c1cc2c(=O)n3ccccc3nc2s1 28.2 µM [inhibitor, partial curve]
CC(C)(C)NS(=O)(=O)c1ccc(CCC(=O)N2CCOCC2)cc1 0.1 µM [inhibitor, full curve, poor fit]
C=CCn1c(O)c(CN2CCCCC2)c(C)c(C#N)c1=O 15.8 µM [inhibitor, partial curve]
COc1ccc(OC)c(C(=O)CSc2nnc(Cc3cccs3)n2CCc2ccccc2)c1 14.1 µM [inhibitor, partial curve]
CC1(C)NC(=O)N(CCCCOc2ccc(Br)cc2Cl)C1=O 39.8 µM [inhibitor, single point]
CC1CCCC(NC(=O)CSc2nnc(N)s2)C1C (stereo not given) 22.4 µM [inhibitor, single point]

Potency, inactive:
NC(N)=NN=Cc1c(Cl)cccc1Cl
CCN1C(=O)/C(=C2/Sc3ccccc3N2CCCS(=O)(=O)O)SC1=S

Potency, active:
O=C1NCCC/C1=N/Nc1ccc(F)cc1 12.6 µM
COCCNC(=O)/C(C#N)=C/c1cc(C)n(-c2ccc(C)cc2)c1C 5.62 µM
CCOC(=O)C1CCN(C(=O)COc2ccc(S(=O)(=O)N3CCCC3)cc2C)CC1 17.8 µM
COc1ccccc1C(=O)NC(=S)N1CCCc2ccccc21 3.16 µM
COc1cc(/C=C2/C(=O)ON=C2C)ccc1OCc1cccc(F)c1 10 µM
CC(C)(C)NS(=O)(=O)c1ccc(CCC(=O)Nc2ccc3c(c2)OCCO3)cc1 3.98 µM
Cc1cc(C)c(C#N)c(SCC(O)CS(=O)(=O)Cc2ccccc2)n1 (stereo not given) 28.2 µM
O=C(CSc1nc(-c2ccco2)cc(C(F)(F)F)n1)N1CCc2ccccc2C1 11.2 µM
CC1(C)CC(=O)C(C2C3=C(CC(C)(C)CC3=O)Oc3ccccc32)=C(O)C1 (stereo not given) 28.2 µM
CSC1=Nc2sc3c(c2C2=NCCN12)CCCC3 14.1 µM
CCCOc1ccc(N2C(=O)C3ON(c4ccccc4)C(c4ccc(O)c(OC)c4)C3C2=O)cc1 (stereo not given) 31.6 µM
Cc1cc(C)nc(SCc2ccc(C(=O)N/N=C3\CCCC(=O)C3)cc2)n1 8.91 µM
O=S(=O)(NC(=S)NC1CCCCC1)c1cccs1 5.62 µM
O=C(CSc1nc2ccccc2c(=O)n1-c1ccccc1)N/N=C/C=C/c1ccccc1[N+](=O)[O-] 2.82 µM
O=C(Cc1c(Cl)cccc1Cl)OCC(=O)N1CCN(C(=O)c2ccco2)CC1 31.6 µM

activity, negative = inhibition, inactive:
CCOC(=O)c1c(C)[nH]c2ccc3c(c12)CN1CCc2cc(OC)ccc2[C@@H]1O3 -2.11%
O=[N+]([O-])c1ccccc1OCCCNCc1ccccc1 -10.7%
CCN(CC)CCNC(=S)Nc1ccc(F)cc1 6.84%
COc1ccc(C(C)(C)C)cc1NC(=O)c1c(C)noc1C 1.24%
COc1cc(/C=C/c2ccc3cccc(OC)c3n2)c(O)c([N+](=O)[O-])c1 9.63%
COc1ccc(OCCCC(=O)Nc2cc([N+](=O)[O-])ccc2C)cc1 -7.87%
COc1ccc(Cl)cc1C(=O)NC(C)C 6.38%
Cc1onc(-c2ccccc2Cl)c1C(=O)Nc1ccc(-c2nnc3n2CCCCC3)cc1 -5.63%
CCOC(=O)c1ccc(Nc2cc(C)nc(C)c2C(=O)OCC)cc1 2.48%
CCc1cc2cc3c(cc2nc1SCC(=O)Nc1nccs1)OCO3 2.56%
Cc1ccc(N2/C(=N/c3nc(C)cc(C)n3)NC(=O)CC2C(=O)O)cc1 (stereo not given) -12%
CCNc1nc(NC(C)CC)nc(ON=C(C)C)n1 (stereo not given) 7.51%
N#Cc1ccsc1NC(=O)c1cnccn1 -5.8%
CCCN(CCC)CC(O)CN1C(=O)N(CN2C(=O)N(CC(O)CN(CCC)CCC)C(=O)C2(C)C)C(C)(C)C1=O (stereo not given) -4.31%
CC(=O)N1CCC2(CCN(Cc3ccccc3)CC2)CC1 2.84%
CCS(=O)(=O)N1CCN(C(=O)c2ccco2)CC1 0.05%
CCN(CC)C(=O)c1sc(NC(=O)c2ccc(C)c([N+](=O)[O-])c2)c(C#N)c1C -1.28%
COc1ccc(CN(CC2CCCO2)C(=O)c2cc3ccccc3oc2=O)cc1 (stereo not given) -1.66%
